By IC50 is meant the dose at which the fit gives 50% viability; where the fit passes the top or lowest dose, that dose stands as a limit. AUC sums up the same curve from the lowest dose to the 256-fold higher top dose; the more sensitive the line, the further below 1. For some assays here: A top dose marked as inferred comes from the curve model; the source does not state it.
Experiments:
Experiment in all cases: Viability of human cancer cell lines after 72 h of drug (GDSC screen)
[1] = compound: COc1cc(N2CCN(C)CC2)ccc1Nc1nc(N)c(C(=O)c2c(Cl)cccc2Cl)s1 [XMD14-99]; details: top dose 10.24 µM; top dose inferred
Protocol: (§1)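 Human cancer cell lines in 384-well plates, medium with 10% serum, drug for 72 h over a 256-fold dose range (nine 2-fold or five 4-fold steps up to the top dose). Adherent lines were fixed and stained with the nucleic acid dye Syto60, suspension lines read with resazurin; signal relative to control wells, capped at 0 and 100%. One two-parameter sigmoid per drug and line, fitted in a mixed model over all curves with the slope shared within a line.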

[2] = compound: CNC(=O)c1cc(Oc2ccc(NC(=O)Nc3ccc(Cl)c(C(F)(F)F)c3)cc2)ccn1 [Sorafenib]; details: top dose 4 µM
Protocol: as §1

[3] = compound: Cc1n[nH]c2ccc(-c3cncc(OC[C@@H](N)Cc4c[nH]c5ccccc45)c3)cc12 [A-443654]; details: top dose 1.024 µM; top dose inferred
Protocol: as §1

[4] = compound: Cc1nc(Nc2ncc(C(=O)Nc3c(C)cccc3Cl)s2)cc(N2CCN(CCO)CC2)n1 [Dasatinib]; details: top dose 1.28 µM
Protocol: as §1

[5] = compound: O=C(NC1CCNCC1)c1n[nH]cc1NC(=O)c1c(Cl)cccc1Cl [AT-7519]; details: top dose 10.24 µM; top dose inferred
Protocol: as §1

[6] = compound: Cc1cc([N+](=O)[O-])ccc1NS(=O)(=O)c1cc(Cl)ccc1Cl [FH535]; details: top dose 32 µM; top dose inferred
Protocol: as §1

| Cell Line | AUC [1] | IC50 [1] [nM] | AUC [2] | IC50 [2] [nM] | AUC [3] | IC50 [3] [nM] | AUC [4] | IC50 [4] [nM] | AUC [5] | IC50 [5] [nM] | AUC [6] | IC50 [6] [nM] |
| --- | --- | --- | --- | --- | --- | --- | --- | --- | --- | --- | --- | --- |
| NB(TU)1-10 (neuroblastoma, adherent) | 0.993 | > 10200 | 0.94 | > 4000 | 0.925 | > 1020 | 0.968 | > 1280 | 0.949 | > 10200 | 0.744 | 8900 |
| SU-DHL-8 (B-cell lymphoma, suspension) | 0.963 | > 10200 | 0.752 | 1250 | 0.511 | 68.6 | 0.93 | > 1280 | 0.191 | 83.4 | 0.647 | 4960 |
| NCI-H524 (small cell lung carcinoma, suspension) | 0.991 | > 10200 | 0.943 | > 4000 | 0.747 | 298 | 0.982 | > 1280 | 0.64 | 1490 | 0.781 | 11800 |
| CW-2 (large intestine, adherent) | 0.981 | > 10200 | 0.98 | > 4000 | 0.989 | > 1020 | 0.988 | > 1280 | 0.988 | > 10200 | 0.984 | > 32000 |
| LS-513 (large intestine, adherent) | 0.98 | > 10200 | 0.954 | > 4000 | 0.944 | > 1020 | 0.96 | > 1280 | 0.845 | 7880 | 0.8 | 16200 |
| KNS-42 (glioma, adherent) | 0.982 | > 10200 | 0.922 | > 4000 | 0.734 | 345 | 0.814 | 873 | 0.93 | > 10200 | 0.722 | 9760 |
| NCI-H510A (small cell lung carcinoma, semi-adherent) | 0.974 | > 10200 | 0.856 | 2820 | 0.717 | 248 | 0.942 | > 1280 | 0.99 | > 10200 | 0.821 | 16600 |
| BB49-HNC (head and neck, adherent) | 0.974 | > 10200 | 0.955 | > 4000 | 0.895 | > 1020 | 0.639 | 226 | 0.954 | > 10200 | 0.866 | > 32000 |
| CP66-MEL (melanoma, adherent) | 0.985 | > 10200 | 0.902 | > 4000 | 0.783 | 498 | 0.632 |  | 0.881 | > 10200 | 0.183 | 188 |
| NCI-H69 (small cell lung carcinoma, suspension) | 0.954 | > 10200 | 0.961 | > 4000 | 0.74 | 341 | 0.966 | > 1280 | 0.724 | 3010 | 0.915 | > 32000 |
| NCI-H2171 (small cell lung carcinoma, suspension) | 0.978 | > 10200 | 0.833 | 2110 | 0.965 | > 1020 | 0.991 | > 1280 | 0.879 | 8080 | 0.932 | > 32000 |
| KGN (ovary, adherent) | 0.927 | > 10200 | 0.88 | > 4000 | 0.597 | 126 | 0.31 | 20.7 | 0.676 | 2220 | 0.6 | 3990 |
| OPM-2 (myeloma, suspension) | 0.96 | > 10200 | 0.93 | > 4000 | 0.765 | 311 | 0.941 | > 1280 | 0.446 | 468 | 0.88 | 22900 |
| GCIY (stomach, adherent) | 0.984 | > 10200 | 0.902 | > 4000 | 0.729 | 316 | 0.543 | 107 | 0.977 | > 10200 | 0.564 | 3050 |
| ES1 (Ewing sarcoma, adherent) | 0.916 | > 10200 | 0.863 | 3370 | 0.762 | 361 | 0.985 | > 1280 | 0.531 | 774 | 0.8 | 15200 |
| HCC1599 (breast, suspension) | 0.968 | > 10200 | 0.956 | > 4000 | 0.639 | 165 | 0.96 | > 1280 | 0.352 | 233 | 0.76 | 12900 |
| MZ2-MEL (melanoma, adherent) | 0.924 | > 10200 | 0.912 | > 4000 | 0.815 | 687 | 0.673 | 266 | 0.56 | 964 | 0.453 | 1460 |
| JiyoyeP-2003 (Burkitt lymphoma, suspension) | 0.991 | > 10200 | 0.905 | > 4000 | 0.662 | 169 | 0.82 | 619 | 0.401 | 356 | 0.665 | 5380 |
| COLO-824 (breast, adherent) | 0.952 | > 10200 | 0.954 | > 4000 | 0.929 | > 1020 | 0.988 | > 1280 | 0.679 | 2040 | 0.809 | 17200 |
| IST-MES1 (mesothelioma, adherent) | 0.972 | > 10200 | 0.855 | 3220 | 0.882 | > 1020 | 0.492 | 75.9 | 0.907 | > 10200 | 0.642 | 4950 |
| ES8 (Ewing sarcoma, adherent) | 0.895 | > 10200 | 0.844 | 2560 | 0.608 | 124 | 0.968 | > 1280 | 0.437 | 435 | 0.621 | 4180 |

Source: the supplement of paper PMC4967469
